Data from paper PMC4336329 (PLoS ONE, 2015).
Hit rate of the full screen: of about 310,000 compounds, about 2,200 (0.71%) showed an effect of 50% or more. The effect is printed as a negative number. The list shows a part of the results.

Molecular target: human ether-à-go-go-related gene (hERG) potassium channel (human, UniProt Q12809)
Test: primary screen, population patch clamp on CHO cells stably expressing hERG

Chain of human ether-à-go-go-related gene (hERG) potassium channel (Q12809 whole entry, looked up): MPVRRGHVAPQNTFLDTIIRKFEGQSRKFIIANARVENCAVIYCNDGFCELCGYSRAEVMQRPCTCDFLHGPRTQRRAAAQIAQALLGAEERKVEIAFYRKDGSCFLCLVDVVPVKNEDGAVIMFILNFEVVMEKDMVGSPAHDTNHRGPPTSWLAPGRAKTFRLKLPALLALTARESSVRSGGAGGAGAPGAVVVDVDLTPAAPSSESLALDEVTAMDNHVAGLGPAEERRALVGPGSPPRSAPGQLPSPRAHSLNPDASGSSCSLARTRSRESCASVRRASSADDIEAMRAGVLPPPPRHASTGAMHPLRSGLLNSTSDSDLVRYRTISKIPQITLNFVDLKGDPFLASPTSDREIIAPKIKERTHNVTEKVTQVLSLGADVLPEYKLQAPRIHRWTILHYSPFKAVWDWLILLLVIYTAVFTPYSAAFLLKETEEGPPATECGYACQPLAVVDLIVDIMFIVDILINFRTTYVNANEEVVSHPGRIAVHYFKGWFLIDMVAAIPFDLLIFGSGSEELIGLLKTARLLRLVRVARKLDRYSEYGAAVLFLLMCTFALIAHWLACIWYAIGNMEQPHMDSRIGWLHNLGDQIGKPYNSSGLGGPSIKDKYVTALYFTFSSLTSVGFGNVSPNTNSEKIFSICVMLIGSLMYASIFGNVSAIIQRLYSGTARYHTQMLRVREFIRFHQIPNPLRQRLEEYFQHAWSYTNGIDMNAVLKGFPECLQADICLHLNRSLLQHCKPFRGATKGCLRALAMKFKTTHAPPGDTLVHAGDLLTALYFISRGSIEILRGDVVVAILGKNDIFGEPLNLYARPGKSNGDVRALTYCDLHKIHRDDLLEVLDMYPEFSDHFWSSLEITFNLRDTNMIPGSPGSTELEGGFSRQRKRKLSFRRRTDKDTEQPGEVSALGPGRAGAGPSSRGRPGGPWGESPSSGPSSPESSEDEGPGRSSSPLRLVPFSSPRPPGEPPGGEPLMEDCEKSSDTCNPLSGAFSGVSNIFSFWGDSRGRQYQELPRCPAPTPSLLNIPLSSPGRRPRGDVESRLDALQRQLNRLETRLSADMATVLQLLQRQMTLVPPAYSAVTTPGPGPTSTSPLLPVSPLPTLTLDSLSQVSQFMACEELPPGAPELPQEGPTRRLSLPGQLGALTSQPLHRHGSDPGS

Row | SMILES | hERG current change (%, negative = inhibition) at 1uM
1 | CCOC(=O)C1CCCN(C(=O)C2CCN(S(=O)(=O)N3CCC4(CC3)OCCO4)CC2)C1 (centres unmarked) | 5.45%
2 | O=C(N/N=C/c1ccc[nH]1)c1cc(-c2cccs2)nc2ccccc12 | 9.6%
3 | O=C(C1CCC(=O)N(C2CC2)C1)N1CCC(Oc2ccccc2F)CC1 (centres unmarked) | 11.9%
4 | CC(C)c1ccc(S(=O)(=O)c2cc3cc(Br)ccc3oc2=O)cc1 | 8.59%
5 | COc1ccc(Nc2nc3ccc(C)cn3c(=O)c2/C=N/O)cc1 | 10.6%
6 | Cc1ccc(NC(=O)C2CCCN(C(=O)NCc3ccccc3)C2)c(C)c1 (centres unmarked) | 13.1%
7 | COc1cc(C(=O)NC(=S)Nc2ccc(N3CCCC3)cc2)cc(OC)c1OC | 9.03%
8 | COc1ccc(Nc2nc(N)c([N+](=O)[O-])c(N3CCN(C)CC3)n2)cc1 | 8.45%
9 | COc1nc(N)c(C#N)c(-c2ccc(N(C)CCC#N)cc2)c1C#N | 5.24%
10 | COC(=O)c1ccccc1NC(=O)COC(=O)/C=C/c1ccco1 | 5.32%
11 | Oc1ccc(N=Nc2nc(-c3ccccc3)c(-c3ccccc3)[nH]2)cc1 | 13.4%
12 | COc1c(Cl)cc(Cl)cc1C(=O)Nc1ccc(C(=O)O)cc1 | 19.9%
13 | Cc1cccc(NC(=O)Cn2cc(C(=O)C3CC3)c3ccccc32)c1C | 11.2%
14 | O=C(O)C1CCCN1S(=O)(=O)c1ccc(F)cc1 (centres unmarked) | 15.7%
15 | O=C(Cn1cc2c(n1)CCCC2)N1CCCc2ccccc21 | 0.83%
16 | NC(=O)CSc1nc(N)c2c3c(sc2n1)CCCCC3 | -1.65%
17 | CCN(CC)S(=O)(=O)c1cccc(-c2nnc(-c3ccc(C)cc3)o2)c1 | 11.6%
18 | CCOC(=O)c1cc(C(=O)NCc2ccc(Cl)cc2Cl)nn1C | 8.91%
19 | CCOC(=O)NC(=O)CSc1nc2ccccc2[nH]1 | 13.9%
20 | Cc1cc2ccccc2nc1SCC(=O)N1c2ccccc2CC1C (centres unmarked) | 14.5%
21 | CCN(CC(=O)Nc1ccc(OC)cc1)C(=O)c1cc(S(=O)(=O)N(C)C)ccc1N1CCCC1 | 3.45%
22 | CC(=O)Nc1ccc(/C(C)=N/NC(=O)c2ccc(F)cc2)cc1 | 10.7%

Row | SMILES | hERG current change (%, negative = inhibition) at 1uM
23 | CN(C)S(=O)(=O)c1ccc(N2CCCC2)c(C(=O)NCc2ccc(Cl)cc2)c1 | -34.4%
24 | Cc1ccccc1-c1nc2cc(Cl)ccc2o1 | 11%
25 | CSc1ccc(CNCC(O)c2ccccc2)cc1.Cl (centres unmarked) | -9.69%
26 | CCOc1ccc(-c2cn(-c3ccc(OC)cc3)c(SC)n2)cc1 | 4.91%
27 | N=C1C(c2ccccc2)=C(O)CN1c1cccc(S(=O)(=O)Nc2cccc(C(F)(F)F)c2)c1 | 25.6%
28 | CC(OC(=O)CCCCCN=C1NS(=O)(=O)c2ccccc21)C(=O)Nc1cc(Cl)cc(Cl)c1 (centres unmarked) | -8.01%
29 | N#Cc1ccccc1NC(=O)CNc1ccccc1N1CCCCC1 | -7.63%
30 | Cc1ccc2c(c1)N(C(=O)CSc1nncn1C)C(C)(C)c1ssc(=S)c1-2 | 4.16%
31 | COc1ccc2c(c1)C(C)CC(C)(C)N2C(=O)NC1CCCCC1 (centres unmarked) | 5.4%
32 | COc1cc(/C=C(\C#N)C(=O)c2c(C)[nH]c3ccccc23)cc(OC)c1OC | 10.8%
33 | O=C(Cn1cnc2scc(-c3ccccc3)c2c1=O)N1CCOCC1 | 8.16%
34 | CC1=C(C)CC(C(=O)NCc2cccc(Cl)c2)C(C(=O)O)C1 (centres unmarked) | 10.6%
35 | COCCNC(=O)c1nc2ccccc2s1 | 10.6%
36 | CCCCS(=O)CC(COCc1ccccc1)OC(=O)CSc1nc(C)cc(C)n1 (centres unmarked) | -7.39%
37 | CCOC(=O)CCCNC(=O)CN1CCC(c2nc3ccccc3s2)CC1 | -20.1%
38 | CCC(=O)Nc1ccccc1C(=O)N1CCCC1 | 8.44%
39 | Cc1ccc(S(=O)(=O)N2CCCCC2)cc1NC(=O)CSc1nnnn1C | -3.71%
40 | Cc1ccc2[nH]c(=O)c(CNC(C)C)cc2c1 | 12.3%
41 | COc1ccc(CCn2c(=O)[nH]c3cc(C(=O)N4CCN(c5ccccn5)CC4)ccc3c2=O)cc1OC | 12.2%
42 | CCNC(=O)CN1c2cccc3cccc(c23)S1(=O)=O | -0.52%
43 | COCCCN(C(=O)c1ccco1)c1nc(-c2cc(OC)ccc2OC)cs1 | -2.17%
44 | C=CCOC(=O)C1=C(C)Nc2ncnn2C1c1cccs1 (centres unmarked) | 8.89%
